# According to article PMC6919601, “Identification of Plasmodium dipeptidyl aminopeptidase allosteric inhibitors by high throughput screening” (PLoS ONE, 2019):
# In all, about 110,000 compounds went through this assay and about 230 (0.21%) showed an effect of 50% or more. The list shows a part of the results.
# Biological target: DPAP1 (Plasmodium falciparum, UniProt Q8IIJ9)
# Experiment: primary screen, percent inhibition; read by cleavage of a fluorogenic dipeptide substrate; higher = more effect of the substance
# Set-up: species or system P. falciparum D10 trophozoite lysates; single well
# 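Also: 30 min substrate incubation versus DMSO and 10 µM JCP410 controls.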
# Sequence of DPAP1 (Q8IIJ9 whole entry, looked up): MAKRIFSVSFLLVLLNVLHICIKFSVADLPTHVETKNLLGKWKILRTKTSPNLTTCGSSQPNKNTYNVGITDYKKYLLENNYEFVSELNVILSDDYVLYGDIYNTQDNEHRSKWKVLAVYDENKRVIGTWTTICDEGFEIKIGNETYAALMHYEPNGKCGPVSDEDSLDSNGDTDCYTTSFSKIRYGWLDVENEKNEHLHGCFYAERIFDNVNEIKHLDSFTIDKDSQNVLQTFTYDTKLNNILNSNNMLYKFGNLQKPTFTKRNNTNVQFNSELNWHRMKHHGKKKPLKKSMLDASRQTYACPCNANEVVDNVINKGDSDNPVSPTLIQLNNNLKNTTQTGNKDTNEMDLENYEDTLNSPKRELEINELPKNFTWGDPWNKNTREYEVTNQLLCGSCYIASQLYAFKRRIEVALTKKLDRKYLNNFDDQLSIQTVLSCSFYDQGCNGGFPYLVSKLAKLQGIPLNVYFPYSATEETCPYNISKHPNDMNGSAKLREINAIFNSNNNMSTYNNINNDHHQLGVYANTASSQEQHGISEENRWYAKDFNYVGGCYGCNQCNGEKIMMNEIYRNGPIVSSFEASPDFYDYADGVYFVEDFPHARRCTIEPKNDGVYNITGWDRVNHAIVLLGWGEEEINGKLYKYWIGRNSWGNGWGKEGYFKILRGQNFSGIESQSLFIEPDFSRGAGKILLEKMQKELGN
row,Compound,% Inhibition @ 10 uM [%]
1,Cc1c(Cl)cccc1NC1=NC(=O)/C(=C2/C(=O)N(C)c3ccccc32)S1,21.7
2,CC(C)C(O)(C#CCN1CCOCC1)C(C)C,-0.591
3,Cc1cc2nc(SCC(=O)c3ccccc3)[nH]c2cc1C,4.55
4,COc1cc(O)ccc1C1CC(=O)Nc2c1c(=O)nc(SC)n2C (stereo not shown),0.596
5,O=C(CSc1nc2nncc-2c(O)n1-c1ccccc1)Nc1cccc(C(F)(F)F)c1,-3.85
6,O=C(NC1(C(F)(F)F)NC(=O)N(C2CCCCC2)C1=O)C1CCCCC1 (stereo not shown),-6.64
7,CCCCOc1ccc(C2C(C#N)=C(N)Oc3[nH]nc(C)c32)cc1OC (stereo not shown),-0.941
8,CC(C)CCNC(=O)Cc1c(C(=O)O)[nH]c2ccccc12,4.14
9,COc1ccc(CC(=O)Nc2ccc(S(=O)(=O)Nc3nc(C)cc(C)n3)cc2)cc1,0.0451
10,Cc1ccc(Nc2nc(-c3ccc(S(=O)(=O)N4CCCC4)cc3)cs2)cc1,0.98
11,N#CC1=C(SCC(N)=O)NC(=O)CC1c1cccc2ccccc12 (stereo not shown),2.58
12,CCOC(=O)c1[nH]nc2c1COc1ccccc1-2,4.33
13,COc1ccc(OC)c(NC(=O)COc2cccc(C)c2)c1,4.49
14,CCN1CCN(C(=O)c2cnc(SC)nc2-c2ccccc2)CC1,6.76
15,O=C(NCc1ccccc1)/C(=C\c1ccc(Cl)cc1)NC(=O)c1ccccc1,2.01
16,CCOc1ccccc1NC(=O)c1ccco1,2.65
17,Clc1ccc2nc(Cl)c3nnnn3c2c1,5.43
18,CC(NC(=O)c1sc2nc(N)c(C#N)cc2c1N)C12CC3CC(CC(C3)C1)C2 (stereo not shown),7.39
19,CCOc1ccccc1C(=O)NCCC(C)C,-1.95
20,Cc1nn(-c2ccccc2)c2sc(-c3nnc(S)o3)cc12,64.9
21,Cc1ccc(SCCC(=O)N2CCN(c3ccccc3F)CC2)cc1,3.29
22,CSCCC(/N=C/C1=C(O)CC(C)(C)CC1=O)C(=O)O (stereo not shown),1.52
23,O=C(Nc1ccc(S(=O)(=O)N2CCc3ccccc32)cc1)c1ccco1,4.67
24,Cc1c(C(=O)OCC(C)(C)CN(C)C)oc2ccccc12,0.685
25,O=C(Nc1cccc(NC(=O)c2ccncc2)n1)c1ccncc1,1.64
26,COc1cc(CN2CCC(O)CC2)cc(OC)c1,-1.22

row,Compound,% Inhibition @ 10 uM [%]
1,Cc1ccc(CN2CCN(c3ccc([N+](=O)[O-])cc3)CC2)o1,-2.95
2,COc1ccccc1/C=C/C1=NC(=C\c2cc(Br)cs2)/C(=O)O1,0.997
3,CC1CCc2c(sc(NC(=O)C3c4ccccc4Oc4ccccc43)c2C(N)=O)C1 (stereo not shown),0.658
4,CCOC(=O)N1CCC(NCCc2c[nH]c3ccccc23)CC1,-3.6
5,COc1ccc(NC(=O)Cc2ccc(F)cc2)cc1,2.84
6,COc1ccc(CC(=O)Nc2nnc(C3CCCCC3)s2)cc1OC,3.54
7,CCc1ccc(CNC(=O)C2CCN(S(=O)(=O)CC)CC2)cc1,-4.83
8,CCC(CC)C(=O)Nc1ccccc1OC,-2.76
9,Cc1nn(CC(=O)NCCCN2CCOCC2)c(=O)c2c1sc1ccccc12,-3.43
10,C1CCC(C2NCCN3CCCC23)CC1 (stereo not shown),-3.6
11,CC12CCC(C(=O)N(c3nc4c(s3)CCCC4)C1=O)C2(C)C (stereo not shown),-3.5
12,CC(C)c1ccc(S(=O)(=O)C2C(=O)N(C)C34CCCCC3C2c2ccccc2O4)cc1 (stereo not shown),0.953
13,CCC(=O)c1ccc(OCC(=O)c2ccc(Br)cc2)cc1,0.323
14,CC(C)(C)c1ccc(S(=O)(=O)Nc2ccc(C(=O)NCc3ccco3)cc2)cc1,0.161
15,Cn1c(=O)[nH]c(=O)c2c1nc(CN1CCN(Cc3ccccc3)CC1)n2CCc1ccccc1,30.2
16,CCn1c2c(c(=O)[nH]c1=O)C(c1cccc3ccccc13)C1=C(O)c3ccccc3C1=N2 (stereo not shown),4.08
17,COc1cc(/C=C2\Sc3ccccc3C2=O)ccc1OCC(=O)O,-1.26
18,Cc1cccc(-c2cc(C(=O)NCCCN3CCOCC3)c3ccccc3n2)c1,-10.6
19,O=C(NCCc1ccc(Cl)cc1)c1coc(=O)c2ccccc12,-5.17
20,C(=C\c1ccccc1)/CN1CCN(Cc2ccc(OCc3ccccc3)cc2)CC1,-3.42
21,C=CCSc1nnc(NC(=O)Cc2coc3ccc(C)cc23)s1,1
22,COCCCNC(=O)/C(C#N)=C/c1c(Oc2cccc(C)c2)nc2c(C)cccn2c1=O,3.63
23,CC(=O)c1ccc(C(=O)N(CCN(C)C)c2nc3cc(C)cc(C)c3s2)cc1,5.85
24,Cc1sc(NC(=O)C2CCCO2)nc1-c1ccccc1 (stereo not shown),-1.59
25,COc1ccc(C)cc1N(CC(=O)Nc1ccc2c(c1)OCO2)S(=O)(=O)c1ccc(C)cc1,3.35
26,COc1ccccc1OCC(=O)NC1CCS(=O)(=O)C1 (stereo not shown),-3.75

row,Compound,% Inhibition @ 10 uM [%]
1,O=C(CCn1nc(-c2ccccc2)ccc1=O)NCCCN1CCC(Cc2ccccc2)CC1,-5.43
2,COc1ccc(CN(C)CCN(C)C)c(OC)c1,1.42
3,COc1ccccc1/C=C1\SC(=O)N(CCC(=O)Nc2ccc(S(N)(=O)=O)cc2)C1=O,-3.84
4,COc1ccc(CCn2c(C)c3c(C)nn4cc(-c5ccc(C)o5)cc4c3c2C)cc1OC,5.35
5,CCCCN(C)C(=O)Cn1nc(Cc2cccnc2)c2ccccc2c1=O,-6.52
6,CSc1ccc(CCNC(=O)Cn2ccc3cc(S(=O)(=O)N4CCCCC4)ccc32)cc1,3.47
7,CC1CN(CC(=O)Nc2sc3c(c2C#N)CCCC3)CC(C)O1 (stereo not shown),-4.49
8,O=C(NCc1cccs1)C(Cc1ccccc1)n1cccc1 (stereo not shown),-2.42
9,Cc1c(CC(=O)NCc2ccccc2)c(=O)oc2cc3occ(C(C)(C)C)c3cc12,4.13
10,CCSC1=N/C(=C\c2ccc(C(=O)O)cc2)C(=O)S1,-2.07
11,O=C(O)C12CC3CC(C1)CC(n1cncn1)(C3)C2,-4.49
12,CCN(CC)S(=O)(=O)c1cc(OC)c(Cl)cc1OC,0.776
13,C/C(=C\c1ccccc1)CN(CCN(C)C)Cc1ccccc1,-5.11
14,CC(=O)Nc1ccc(S(=O)(=O)NC2CCCC2)cc1,-0.413
15,CCCOc1ccc(NC(=O)OC2CCN(C)CC2)cc1,0.24
16,C=CCn1c(S)nnc1CCn1c2ccccc2c2ccccc21,4.35
17,CCNC(=O)C1COc2ccccc2O1 (stereo not shown),5.01
18,N#C/C(=C\c1cccs1)c1nc(-c2cccs2)cs1,-0.239
19,CCN1C(=O)N/C(=C/c2ccc(O)c(OC)c2)C1=O,-5.45
20,COc1cccc(OCC(O)CN2CCCCCC2)c1 (stereo not shown),2.76
21,CC(=O)c1c(C(C)=O)c(C)n(-c2nc(-c3ccc(Br)cc3)c(C)s2)c1C,0.778
22,C(#Cc1ccccc1)CNCCc1c[nH]c2ccccc12,-1.52
23,Cc1ccccc1CN1CCCN(C)CC1,-0.0404
24,Cc1[nH]c2ccccc2c1C(=O)/C=C/c1cccnc1,-0.969
25,Cn1c(=O)c2sccc2n2c(CCCC(=O)N3CCN(C4CCCCC4)CC3)nnc12,-5.39
26,COc1ccc(-c2csc(/C(C#N)=C/c3ccc(O)cc3)n2)cc1,-4.58

row,Compound,% Inhibition @ 10 uM [%]
1,O=C(Cn1ncc2ccccc21)NCc1cccs1,3.29
2,CC(C)C[C@H](NC(=O)c1ccc(-c2cc(Cl)sc2Cl)cc1)C(=O)NCC#N,1.35
3,COCCNC(=O)CCCCCn1c(=O)[nH]c2ccsc2c1=O,-7.33
4,Cc1nc(O)c2nnn(Cc3ccccc3)c2n1,-6.42
5,Oc1cc(-c2ccccn2)[nH]n1,0.503
6,CCc1ccccc1N(CC(=O)NC(C)(C)C)S(=O)(=O)c1ccc(C)cc1,9.34
7,CC(=O)c1cccc(NC(=O)Nc2ccc(Cl)c(Cl)c2)c1,4.54
8,C=CCNC(=O)c1ccc2c(c1)C1C3CCC(C3)C1C(c1ccccc1)N2 (stereo not shown),2.44
9,CCOC(=O)c1[nH]c2c(c1-c1ccccc1)C(=O)CC(c1ccc(OCC)cc1)C2 (stereo not shown),-3.21
10,COc1ccc2nc3sc(C(=O)N4CCN(c5ccccn5)CC4)cc3cc2c1,-0.426
11,Cc1cc(OCC(=O)N2CCCCCC2)ccc1Cl,0.634
12,COCCNC(=O)C1Sc2nnc(C)n2NC1c1ccc(Cl)cc1 (stereo not shown),-5.41
13,O=C(NCCCN1CCN(Cc2ccccc2)CC1)c1csc2c1CCCC2,-6.95
14,CC(=O)CCS(=O)(=O)c1ccc(C)c(C)c1,4.57
15,Oc1cc(Cc2ccccc2)nc2c(-c3ccc(Cl)cc3)cnn12,6.06
16,Cc1ccc2nc3c(cc(C(=O)NCCc4ccccc4)c(=N)n3Cc3ccco3)c(=O)n2c1,5.17
17,O=C(O)C1Cn2c(nc3c(c2=O)C2(CCCC2)Cc2ccccc2-3)S1 (stereo not shown),-7.83
18,Cc1ccc2c(c1)cc1c(=O)n(CC(=O)NCCCN3CCOCC3)nc(C)n12,-1.7
19,Cc1ccc2[nH]c(C)c(CCNC(=O)c3scc4c3OCCO4)c2c1,4.19
20,O=C(Nc1ccccc1)c1cccc(S(=O)(=O)Nc2ccc(Cl)cn2)c1,4.8
21,Cc1cc(N2CCC(C)CC2)nc2cccc(O)c12,-4.74
22,CCCc1nnc2sc(NC(=O)C(CC)Oc3ccccc3)nn12 (stereo not shown),-0.659
23,CC(C)Oc1ccc(CNC(=O)CCn2c(=O)c3cccn3c3cccnc32)cc1,-4.51
24,CCCCN(C)C(=O)c1cnc2ccc(S(=O)(=O)N3CCOCC3)cc2c1O,-5.64
25,Clc1ccc(-c2nc3ccccc3[nH]2)c(Cl)c1,-2.63
